Hit rate of the full screen: of about 48,000 compounds, about 1,200 (2.5%) were called active. Inconclusive results (about 2%) are left out.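 How the source made its calls: active means activation of at least 60% and not above a set upper limit (about 1 call in 100 departs from these limits); inconclusive means activation of 40% to 60%, or above that upper limit; inactive means activation under 40%.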 This is one part of the list.

This note sets out measurements from PubChem BioAssay AID1346428 (National Center for Advancing Translational Sciences (NCATS), 2018).

The target in the assay is Probable G-protein coupled receptor 32 (Homo sapiens) (UniProt O75388). Kind of assay: qHTS for Agonists of Human Resolvin D1 Receptor DRV1. Further: 0% is about no effect. The conditions noted are these: CHO-K1 GPR32 beta-arrestin PathHunter luminescence, 90 min; at 76.9 µM; hits give high values; zero percent set by DMSO-only wells. An outline of the steps: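 CHO-K1 cells stably expressing ProLink-tagged GPR32 and Enzyme Activator-tagged beta-arrestin were seeded at 2,500 cells/well overnight, exposed to compounds for 90 min at 37 °C, then read by beta-Gal complementation chemiluminescence after 1 h detection reagent.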
UniProt O75388, sequence (O75388 whole entry, looked up): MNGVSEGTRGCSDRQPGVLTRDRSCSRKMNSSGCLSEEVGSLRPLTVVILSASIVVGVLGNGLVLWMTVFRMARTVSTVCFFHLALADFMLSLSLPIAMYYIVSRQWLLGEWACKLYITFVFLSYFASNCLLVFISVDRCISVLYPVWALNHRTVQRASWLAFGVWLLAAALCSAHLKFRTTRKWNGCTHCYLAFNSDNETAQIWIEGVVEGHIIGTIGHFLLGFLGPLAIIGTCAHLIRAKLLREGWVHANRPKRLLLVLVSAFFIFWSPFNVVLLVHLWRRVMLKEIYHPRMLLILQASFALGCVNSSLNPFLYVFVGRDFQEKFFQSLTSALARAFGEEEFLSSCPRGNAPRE
A general note: Quantitative high-throughput screening tests each substance at several concentrations.
`CCn1cc2nc(SCC(=O)Nc3cc(OC)cc(OC)c3)n(Cc3ccc(Cl)cc3)c(=O)c2n1`: the activation is inactive: -0.0407%.

`Cc1nn(CC(=O)NC2CCC(C)CC2)c(=O)c2c1sc1ccccc12` (stereo not drawn): the activation is inactive: 0.0637%. With `O=C(/C=C/c1ccccc1Cl)N1CCC(c2nc3ccccc3o2)CC1` the figure was inactive: 9.45%. Take `COC(=O)N1CCCc2cc(S(=O)(=O)NCc3ccccc3)ccc21`: the activation was inactive: -3.74%. With `CCOc1ccc(NC(=O)c2sc3nc4n(c(=O)c3c2C)CCC4)cc1` the figure was inactive: 8.07%; with `COc1ccc(-c2nn3c(=O)cc(CN4CCN(C(=O)/C=C/c5ccccc5)CC4)nc3s2)cc1`, inactive: 29.5%.

As for `Cc1cccc(C)c1NC(=O)c1ccc2c(c1)nnn2C1CCCC1`, the activation was inactive: 22.1%. With `CCOc1cc(-c2ccc(OC(=O)c3ccccc3Cl)c(OC)c2)cc(=O)c2c(C)oc(C)c12` the figure was inactive: -24.5%.

Consider `COc1ccc(C2CC(=O)Nc3c2c(=O)[nH]c2nc4ccccc4n32)cc1` (stereo not drawn), for which the activation is inactive: 2.01%. The result for `CCNC(=O)c1ccc(NC(=O)N2CCCCc3ccccc32)cc1` reads inactive: 11.3%; that for `CCCCN(CC)CCNC(=O)C1CCN(S(=O)(=O)c2cccc3nsnc23)CC1`, inactive: -0.221%. As to `Cc1ccccc1COC(=O)c1nn(-c2ccccc2)nc1N`, the activation is inactive: -8.06%.

`COc1ccccc1N1CCN(C(=O)Cn2c(=O)n3nc(-c4cccc(F)c4)nc3c3ccccc32)CC1`: the activation was inactive: 2.74%. With `Cc1cc(C)cc(NC(=O)CSc2nc3c(c(=O)[nH]2)CN(Cc2ccc(F)cc2)CC3)c1` the figure was inactive: 9.89%. With `CCn1cc(C(=O)Nc2cccc(Cl)c2)c2cc(OC)c(OC)cc2c1=O` the figure was inactive: 18.2%; with `CC(=O)c1ccc(N2CCN(S(=O)(=O)c3ccc(-c4coc(C)n4)cc3)CC2)cc1`, active: 63%. On to `COc1cc(/C=C(/C#N)c2nc(-c3cc4ccccc4oc3=O)cs2)ccc1O`, for which the activation was inactive: -9.98%.

Turning to `CC1CCCCN1C(=O)CSc1nc(-c2ccccc2)no1` (stereo not drawn), the activation is inactive: 30.8%. With `Cc1c(Cl)cccc1NC(=O)Nc1c[nH]c(=O)[nH]c1=O` the figure was inactive: -4.64%; with `Cc1cccc(NC(=O)CSc2nc3c([nH]c4ccccc43)c(=O)n2-c2cc(C)cc(C)c2)c1`, inactive: 10.2%; with `COc1cc(OC)cc(C(=O)Nc2nc(-c3nnn(-c4ccc(C)cc4)c3C)ns2)c1`, inactive: 38.5%.

Take `CCOC(=O)C1=C(CN2CCC(C)CC2)NC(=O)NC1c1ccc(OC(C)C)cc1` (stereo not drawn): the activation is inactive: 9.07%. Turning to `CSc1cccc(-n2nnc(-c3nsc(NC(=O)c4cccs4)n3)c2C)c1`, the activation was inactive: -9.88%. With `CCOC(=O)c1ccccc1NC(=O)CSc1nc(=O)[nH]c2c1CCCC2` the figure was inactive: 3.99%. Regarding `COc1ccc(Br)cc1CNC(=O)Cn1nc(C)n2c(cc3cc(F)ccc32)c1=O`, the activation is inactive: 2.71%. With `CCS(=O)(=O)N1CCCc2cc(C(=O)Nc3cc([N+](=O)[O-])ccc3C)ccc21`, the activation was inactive: 16.7%. In the case of `COc1ccc(-n2c(C)nc3c(cnn3-c3ccc(C)c(C)c3)c2=O)cc1Cl`, the activation is inactive: -10.9%. The result for `CCc1ccc2occ(CC(=O)N(Cc3ccccc3)C3CCS(=O)(=O)C3)c2c1` (stereo not drawn) reads inactive: -15%; that for `Cc1ccc(NC(=O)CN2C(=O)C(c3ccccc3)=NC23CCCCC3)cc1C`, inactive: -17.4%.

In the case of `COc1ccc(Nc2nc3c(S(=O)(=O)c4ccccc4)nnn3c3ccc(Cl)cc23)cc1`, the activation is inactive: -2.24%.

On to `CCN(CC)CCCNC(=O)c1cn(CC)c2ccc(S(=O)(=O)N3CCC(C)CC3)cc2c1=O`, for which the activation was inactive: -3.55%. Consider `Cc1cc(=O)n(CC(=O)N2CCCCC2)c2c1c(C)nn2C`, for which the activation was inactive: 14%.

`COc1cccc(CNC(=O)Cn2c(=O)ccc3cc(S(=O)(=O)N4CCCC4)ccc32)c1`: the activation is inactive: -4.92%. The result for `CCc1ccc(S(=O)(=O)c2nnn3c2nc(N(C)Cc2ccccc2)c2cc(Cl)ccc23)cc1` reads inactive: -1.23%; that for `COCCCN1CCC(NC(=O)c2cc(Cl)c(N)c3c2OCC3)CC1`, inactive: -16.4%. `Cc1cc(Nc2ccccc2C)c2cccc(C)c2n1`: the activation was inactive: 33.6%. With `CCC(C)n1c(SCC(=O)Nc2ccccc2C(=O)OC)nc2ccsc2c1=O` (stereo not drawn) the figure was inactive: -36.4%. The result for `Cc1ccc(C(=O)NCC(c2ccc(Cl)cc2)N2CCCCC2)cc1` (stereo not drawn) reads inactive: -10.3%; that for `COCCCNC(=O)CCCn1c(SCC(=O)c2ccc(Br)cc2)nc2c(sc3ccccc32)c1=O`, inactive: -26.4%; that for `CCc1ccc(NC(=O)C2CCCN(S(=O)(=O)c3ccc4c(c3)oc(=O)n4C)C2)cc1` (stereo not drawn), inactive: 45.9%.

On to `COc1cccc(CNC(=O)c2cccc(N3CCCS3(=O)=O)c2)c1`, for which the activation was inactive: 14.1%. The result for `Cc1ccc(Cl)c2sc(NC(=O)c3ccc(S(=O)(=O)N4CCCC4)cc3)nc12` reads inactive: 5.04%; that for `CCc1nn(CC(=O)NCCc2ccc(Cl)cc2)c(=O)c2cc3c(OC)cccc3n12`, inactive: -15.9%; that for `COc1ccccc1C(=O)Nc1cccc(OCc2cc(=O)n3ccccc3n2)c1`, inactive: -14.3%. `COC(=O)c1ccc(NC(=O)c2cnn(-c3ccc(Cl)cc3)c2C2CCN(C(=O)OC(C)(C)C)CC2)cc1`: the activation was inactive: -16.9%. The result for `COc1cccc(NC(=O)c2oc3ccc(S(=O)(=O)N(C)C4CCCCC4)cc3c2C)c1` reads inactive: -15.9%. Consider `CC(C)(C)OC(=O)N1CCC(c2c(C(=O)N3CCCCC3)cnn2-c2ccc(F)cc2)CC1`, for which the activation is inactive: -7.72%. `Cc1ccc(C)c(NC(=O)CSc2nc3ccccc3nc2N2CCOCC2)c1`: the activation is inactive: -0.707%.

As for `CCSc1ccccc1C(=O)N1CCN(c2nc3ccccc3s2)CC1`, the activation is inactive: 27.7%. The result for `CCc1ccc(-c2nn(-c3ccc(OC)cc3)c3c2cnc2ccc(OC)cc23)cc1` reads inactive: -1.93%. The result for `CCN(CC)C(=O)c1c(NC(=O)c2ccccc2F)sc2c1CCC(C(C)(C)C)C2` (stereo not drawn) reads inactive: -33.9%; that for `Cc1cc(C)c(NC(=O)c2cc(C)nc3c2c(C)nn3-c2cccc(F)c2)c(C)c1`, inactive: -6.69%.

Consider `Cc1cc2oc(C(=O)N(Cc3ccc(Cl)cc3)Cc3ccco3)c(C)c2cc1Cl`, for which the activation is inactive: -23.3%.
